Out of some 150,000 compounds screened, about 540 (0.36%) showed an effect of 50% or more. Some of the results follow.

In this test the test system is Plasmodium falciparum. Kind of test: Primary screen in NF54 nanoGlo assay, in single point, at 2uM, 72h; a lower Z score goes with more inhibition. As to conditions: timepoint 72 hour. The test is classed as functional, Erythrocyte.
Regarding `O=C(Nc1cnccn1)c1sccc1OC(F)F`, the % Inhibition (as a rule, the change of the read-out against control, counted positive when it falls) is on record as -6% and the Z score is 0.61.

`O=C(NCCCn1ccccc1=O)c1cccc(OC(F)F)c1`: the “% Inhibition” value is -11% and the Z score was 1.3.

As for `CCn1ncnc1[C@H](C)Nc1nc(C)nc(C)c1C`, the “% Inhibition” value is on record as 0% and the Z score worked out at 0.03.

Regarding `O=C(N[C@H]1CNC[C@@H]1O)c1cn(C(c2ccccc2)c2ccccc2)nn1`, the “% Inhibition” value is 0% and the Z score is -0.02.

With `CC(C)c1nc(N2CCCC2=O)sc1C(=O)NC1CCCCCCC1`, the “% Inhibition” value is listed as 2% and the Z score was -0.22.

Turning to `CCC[C@]1(c2ccccc2)NC(=O)N(Cc2coc(-c3ccc(C)cc3C)n2)C1=O`, the “% Inhibition” value was -10% and the Z score was found to be 1.19.

Consider `CCOc1ncccc1C(=O)NCc1ccc(N2CCCCC2)nc1`, for which the “% Inhibition” value is -14% and the Z score worked out at 1.59.

With `CC(C(C)S(C)(=O)=O)N(C)Cc1ccccn1` (centres undefined), the “% Inhibition” value is recorded as -5% and the Z score is on record as 0.69.

Consider `C[C@@H](c1cccnc1)N(C)CC(=O)Nc1nccs1`, for which the “% Inhibition” value came out at 9% and the Z score is on record as -1.03.

As to `O=S(=O)(c1ccccc1)N1CCc2nc(N3CCc4ccccc4C3)nc(Oc3cccc(F)c3)c2C1`, the “% Inhibition” value is listed as -9% and the Z score was 1.59.

With `CCCc1nc(C)c(CN[C@H]2CCC(=O)N(Cc3ccccc3)CC2)s1`, the “% Inhibition” value is on record as 7% and the Z score was -1.33.

Take `Cc1cnc(CCNS(=O)(=O)C(C)C)n1C1CCC1`: the “% Inhibition” value is listed as -8% and the Z score worked out at 1.23.

Consider `Cn1ccnc1CN1CCN(c2nc3nonc3nc2N2CCCCC2)CC1`, for which the “% Inhibition” value is on record as -8% and the Z score is 1.06.

As to `Cc1nn(C)c(C)c1CCc1nc(-c2ccco2)nn1-c1ccncc1`, the “% Inhibition” value is -10% and the Z score was determined as 1.32.

For `COC(=O)c1ccc(N(Cc2nnc(C)n2C)S(C)(=O)=O)cc1`, the “% Inhibition” value was 3% and the Z score is on record as -0.47.

In the case of `CCCC(=O)Nc1nn(C)cc1C(=O)OCC`, the “% Inhibition” value is reported as -5% and the Z score amounted to 0.82.

With `C[C@@H](C(=O)c1ccccc1)N1C(=O)CCC1=O`, the “% Inhibition” value was -9% and the Z score amounted to 1.47.

Regarding `CC(CC(=O)c1ccco1)NC(=O)C1CCCc2ccccc21` (centres undefined), the “% Inhibition” value is reported as 1% and the Z score is on record as -0.09.

`CN(Cc1ccncc1)S(=O)(=O)CCCC(F)(F)F`: the “% Inhibition” value was -11% and the Z score is listed as 0.97.

For the compound `CC[C@@H](CO)NC(=O)NC1CCCc2cnn(C(C)C)c21` (some centres undefined), the “% Inhibition” value was -6% and the Z score is reported as 0.69.

For the compound `CCn1nc(C(=O)NCCN2CCCC2)cc1-c1ccc(C(C)(C)C)cc1`, the “% Inhibition” value is on record as -12% and the Z score is reported as 1.47.

Turning to `COc1ccc(OC2CCN(C3CCCC3)CC2)c(C(=O)N(C)Cc2ccncc2C)c1`, the “% Inhibition” value is reported as -3% and the Z score came out at 0.47.

On to `CN1CCN(C(=O)C2CC3CCCC(C2)C3=O)CC1` (centres undefined), for which the “% Inhibition” value was -18% and the Z score is recorded as 2.12.

For the compound `CC[C@H]1C(=O)NCCCN1C(=O)c1cnn2ccncc12`, the “% Inhibition” value is -5% and the Z score is recorded as 0.49.

Turning to `O=C(CN1CC(=O)NC1=O)NCc1ccc(-n2cnc3ccccc32)cc1Cl`, the “% Inhibition” value is listed as -11% and the Z score is 1.31.

As for `CCn1ncc(Cl)c1C(=O)N1CCC[C@H]1c1cccs1`, the “% Inhibition” value was 3% and the Z score is on record as -0.61.

In the case of `O=C(CN1C(=O)c2ccccc2C1=O)OCCOc1cccc(Cl)c1`, the “% Inhibition” value is reported as -5% and the Z score stood at 0.85.

For the compound `Cn1cccc1-c1noc(CNC(=O)c2cccnc2O)n1`, the “% Inhibition” value is reported as -18% and the Z score amounted to 2.29.

On to `OCCN1CCC[C@H](c2ccc(F)cc2)CC1`, for which the “% Inhibition” value is recorded as -14% and the Z score is given as 1.73.

For the compound `Cc1nccn1CCN(C1CCN(C(=O)CCC2CCCCC2)CC1)S(C)(=O)=O`, the “% Inhibition” value is listed as -13% and the Z score is recorded as 1.77.

In the case of `O=C(CC[C@H]1CCCCO1)NCc1cccc(C(F)(F)F)n1`, the “% Inhibition” value was 1% and the Z score is on record as -0.07.

For the compound `CCCS(=O)(=O)NCC1(CO)CC1`, the “% Inhibition” value was -15% and the Z score is listed as 1.56.

For the compound `COc1cc(C)cc(C)c1S(=O)(=O)N(C)Cc1nnc[nH]1`, the “% Inhibition” value was 37% and the Z score is given as -5.31.

For the compound `O=C(Nc1cccc2ccccc12)N1CCCC[C@@H]1CCn1ccnc1`, the “% Inhibition” value turned out to be 2% and the Z score is recorded as -0.41.

For `Cc1oc(C)c(C(=O)[C@H](C#N)c2ccccn2)c1C`, the “% Inhibition” value was 3% and the Z score is listed as -0.46.

Regarding `COc1ccc([C@H](CNCc2c(OC(F)F)ccc3ccccc23)N2CCOCC2)cc1`, the “% Inhibition” value is -13% and the Z score turned out to be 1.41.

With `O=C(O)C1CCCN1C(=O)COCC1CCCO1` (centres undefined), the “% Inhibition” value is -11% and the Z score was found to be 1.27.

For the compound `O=C(NCC1(Cn2cccn2)CC1)c1csc2nc(-c3ccccc3)cn12`, the “% Inhibition” value amounted to 6% and the Z score is given as -0.86.

On to `COC(=O)CC[C@H]1CCCCN1C(=O)c1[nH]cnc1C`, for which the “% Inhibition” value was -7% and the Z score was 1.26.

Take `COc1cccc(-c2noc(N3CCC(N4CCCCC4)CC3)n2)c1`: the “% Inhibition” value was -11% and the Z score was 1.

In the case of `COc1ccc(F)c(CN2CCC[C@@]3(CCN(C(=O)CCC(F)(F)F)C3)C2)c1`, the “% Inhibition” value is -2% and the Z score is listed as 0.38.

For `CCNc1ncc(C(=O)Nc2[nH]nc(C3CC3)c2C)s1`, the “% Inhibition” value is on record as -4% and the Z score is 0.55.

`CC(C)c1n[nH]c([C@@H]2CN(Cc3cccc4cccnc34)CCO2)n1`: the “% Inhibition” value stood at 0% and the Z score is recorded as -0.05.

As to `CN(C)C[C@H]1C[C@H](CO)CN(C(=O)CCc2ccc(-c3ccccc3)cc2)C1`, the “% Inhibition” value is reported as -9% and the Z score was determined as 1.78.

In the case of `Cc1ncsc1C(=O)N[C@@H](C)Cn1cccn1`, the “% Inhibition” value is -11% and the Z score turned out to be 0.98.

Take `CCn1ncc(-c2nc(C(C)C3CCCO3)no2)n1` (centres undefined): the “% Inhibition” value is given as -10% and the Z score worked out at 1.82.

Consider `O=C1NCCN(C(=O)c2ccccc2-c2nnn[nH]2)[C@H]1Cc1ccccc1`, for which the “% Inhibition” value is reported as -18% and the Z score was found to be 1.57.

`N#Cc1ccc(CN(CCC(F)(F)F)C2CCCC2)o1`: the “% Inhibition” value is given as 1% and the Z score was -0.17.

Regarding `O=C([C@@H]1CCCc2[nH]ncc21)N(CCO)CC(F)F`, the “% Inhibition” value was -4% and the Z score turned out to be 0.5.

On to `Cc1ccc(O[C@@H](C)CNC(=O)NCc2cccnc2)cc1`, for which the “% Inhibition” value was 13% and the Z score was -2.51.

Turning to `CCCS(=O)(=O)NCCc1ncc(C)n1C(C)C`, the “% Inhibition” value is given as 1% and the Z score is reported as -0.15.

On to `COc1cccc2nnc(NC(=O)CCC(=O)NC3CCCCC3)n12`, for which the “% Inhibition” value was 5% and the Z score is recorded as -1.03.

For `CC(C)c1noc(NC2CCN(S(=O)(=O)C(C)(C)C)CC2)n1`, the “% Inhibition” value was determined as 2% and the Z score is -0.21.

`N#Cc1c(O)nc(N2CCOCC2)nc1-c1ccccc1`: the “% Inhibition” value worked out at 20% and the Z score is reported as -1.93.

In the case of `C[C@@H](Cc1cnccn1)NC(=O)c1coc(COc2ccccc2)n1`, the “% Inhibition” value is -24% and the Z score is reported as 2.12.

On to `Cc1nc(C)c(S(=O)(=O)Nc2cnoc2C)s1`, for which the “% Inhibition” value is given as 1% and the Z score was -0.09.

On to `Cc1[nH]c2c(F)cc(F)cc2c1CCNC(=O)CCn1cncn1`, for which the “% Inhibition” value was -23% and the Z score is on record as 2.29.
